Where a name gives a salt, the structure may show the parent alone. Read-outs that look alike come from different tables or passages of the source.
How the values were obtained:
[1] = test system: CD47 deficient (CD47 KO) Jurkat T cells; details: for AC50: read-out: AC50 (μM) CD47 KO, cell viability
[2] = test system: WT Jurkat cells; details: for AC50: read-out: AC50 (μM) WT
[3] = CD47 KO Jurkat T cells, 48 hours, 10^-9 to 10^-4 M, CellTiter-Glo
[4] = difference CD47 KO minus WT Jurkat cells, 48 hours
[5] = WT Jurkat cells, 48 hours, 10^-9 to 10^-4 M, CellTiter-Glo
[6] = CD47 KO Jurkat T cells, 48 hours

SMILES	Maximal Response CD47 KO (RLU) [1, 3] [RLU]	Maximal Response WT (RLU) [2, 5] [RLU]	also measured
CC(C)c1cnn2c(NCc3ccccc3)cc(N[C@@H](CO)[C@H](O)CO)nc12 [BS-194]	43.598	1.928	Δ Maximal Response CD47KO-WT [1, 4]: 41.67
O=c1cc(-c2ccccc2)oc2cc(O)c(O)c(O)c12 [Baicalein]	91.667	63.506	
O=C(O)[C@H]1O[C@@H](Oc2cc3oc(-c4ccccc4)cc(=O)c3c(O)c2O)[C@H](O)[C@@H](O)[C@@H]1O [Baicalin]	78.198	52.935	
Cn1c(CCCC(=O)O)nc2cc(N(CCCl)CCCl)ccc21 [Bendamustine]			Maximal Response CD47 KO (RLU) [1]: 122.856 RLU; sensitivity of CD47-expressing versus deficient Jurkat T cells ([1]; 48 hours): differing sensitivities; Maximal Response WT (RLU) [2]: 25.146 RLU
CCCCOc1ccc(CC(=O)NO)cc1 [Bufexamac]	80.782	34.171	
O=C(NCc1ccccc1)[C@H](Cc1ccccc1)NC(=O)[C@H]1O[C@@H]1C(=O)NCCc1ccc(O)cc1 [CAA0225]	41.833	13.449	
CC[C@H](Nc1ncnc2[nH]cnc12)c1nc2cccc(F)c2c(=O)n1-c1ccccc1 [CAL-101]	32.28	9.332	
CN(C)CCN(C)C(=O)c1ccc(NC(=O)Nc2ccc(-c3nc(N4CCOCC4)c4ccn(CC(F)(F)F)c4n3)cc2)cc1 [CAY10626]			Δ LogAC50 CD47KO-WT ([1]; log AC50 difference CD47 KO minus WT): 0.8; AC50 [1, 6]: 6.62 µM; AC50 ([2]; WT Jurkat cells, cell viability, 48 hours): 1.05 µM
CS(=O)(=O)N1CCc2c(-c3cnc(N)nc3)nc(N3CCOCC3)nc21 [CH-5132799]	32.385	10.205	
O=c1[nH]c2ccc(Cl)cc2c(N[C@@H]2CN3CCC2CC3)c1-c1nc2ccccc2[nH]1 [CHIR-124]			Δ LogAC50 CD47KO-WT [1]: 1.1; AC50 [1, 6]: 1.48 µM; AC50 [2]: 0.118 µM
C[C@@](Cc1ccc(O)c(O)c1)(NN)C(=O)O [Carbidopa]	43.994	12.731	
C/C=C(\C)C(=O)N[C@@H](c1ccccc1)[C@@H](O)C(=O)O[C@H]1C[C@@]2(O)[C@@H](OC(=O)c3ccccc3)[C@@H]3[C@]4(OC(C)=O)CO[C@@H]4C[C@H](O)[C@@]3(C)C(=O)[C@H](OC(C)=O)C(=C1C)C2(C)C [Cephalomannine]			Maximal Response CD47 KO (RLU) [1]: 45.625 RLU; Maximal Response WT (RLU) [2]: 22.158 RLU
C/C=C/C/C=C/CCC(=O)[C@H]1O[C@H]1C(N)=O [Cerulenin]	39.947	10.602	
O=C(O)CCCc1ccc(N(CCCl)CCCl)cc1 [Chlorambucil]			Maximal Response CD47 KO (RLU) [1]: 92.524 RLU; sensitivity of CD47-expressing versus deficient Jurkat T cells ([1]; 48 hours): differing sensitivities; Maximal Response WT (RLU) [2]: 16.98 RLU
CC(C)(Oc1ccc(C2CC2(Cl)Cl)cc1)C(=O)O (centres unmarked) [Ciprofibrate]	94.451	12.532	
COc1cc2c(c(OC)c1OC)-c1ccc(OC)c(=O)cc1[C@@H](NC(C)=O)CC2 [Colchicine]			Maximal Response CD47 KO (RLU) [1]: 45.702 RLU; Maximal Response WT (RLU) [2]: 9.264 RLU
COc1ccc(/C=C\c2cc(OC)c(OC)c(OC)c2)cc1O [Combretastatin A-4]			Maximal Response CD47 KO (RLU) [1]: 36.125 RLU; Δ Maximal Response CD47KO-WT [1]: 23.243; Maximal Response WT (RLU) [2]: 12.882 RLU
C[C@H]1COC2=C1C(=O)C(=O)c1c2ccc2c1CCCC2(C)C [Cryptotanshinone]			Maximal Response CD47 KO (RLU) [1]: 31.687 RLU; Maximal Response WT (RLU) [2]: 5.548 RLU
Nc1ccn([C@@H]2O[C@H](CO)[C@@H](O)[C@@H]2O)c(=O)n1 [Cytarabine]	50.088	6.781	maximal inhibition of viability, CD47-deficient versus WT Jurkat T cells (in words) ([1]; 48 hours): significantly decreased maximal inhibition of viability
CNC(=O)c1cc(Oc2ccc(NC(=O)Nc3cc(C(C)(C)C)nn3-c3ccc4ncccc4c3)c(F)c2)ccn1 [DCC-2036]	41.19	3.812	
O=c1c(-c2ccc(O)cc2)coc2cc(O[C@@H]3O[C@H](CO)[C@@H](O)[C@H](O)[C@H]3O)ccc12 [Daidzin]			Maximal Response CD47 KO (RLU) [1]: 144.949 RLU; Maximal Response WT (RLU) [2]: 115.579 RLU
CC(C)(C)OC(=O)N[C@H]1CCCCC/C=C\[C@@H]2C[C@@]2(C(=O)NS(=O)(=O)C2CC2)NC(=O)[C@@H]2C[C@@H](OC(=O)N3Cc4cccc(F)c4C3)CN2C1=O [Danoprevir]	101.689	75.521	
CN[C@H]1CCc2cc(OC)c(OC)c(OC)c2-c2ccc(OC)c(=O)cc21 [Demecolcine]			Maximal Response CD47 KO (RLU) [1]: 39.703 RLU; Maximal Response WT (RLU) [2]: 14.285 RLU

SMILES	Maximal Response CD47 KO (RLU) [1, 3] [RLU]	Maximal Response WT (RLU) [2, 5] [RLU]	also measured
C[C@@H](CN1CC(=O)NC(=O)C1)N1CC(=O)NC(=O)C1 [Dexrazoxane hydrochloride]	114.137	70.455	
O=C1c2c(O)cc(O)cc2O[C@H](c2cc(O)c(O)c(O)c2)[C@H]1O [Dihydromyricetin]	36.707	15.036	
CCc1cnn2c(NCc3ccc[n+]([O-])c3)cc(N3CCCC[C@H]3CCO)nc12 [Dinaciclib]	47.924	3.92	
CC(CCc1ccc(O)cc1)NCCc1ccc(O)c(O)c1 (centres unmarked) [Dobutamine hydrochloride]	40.55	8.698	
CC(=O)O[C@@]12CO[C@@H]1C[C@H](O)[C@@]1(C)C(=O)[C@H](O)C3=C(C)[C@@H](OC(=O)[C@H](O)[C@@H](NC(=O)OC(C)(C)C)c4ccccc4)C[C@@](O)([C@@H](OC(=O)c4ccccc4)[C@H]21)C3(C)C [Docetaxel]	57.66	24.806	
C[C@H]1c2cccc(O)c2C(=O)C2=C(O)[C@]3(O)C(=O)C(C(N)=O)=C(O)[C@@H](N(C)C)[C@@H]3[C@@H](O)[C@@H]21 [Doxycycline]	47.095	19.309	
COc1ccc(S(=O)(=O)Nc2cccnc2Nc2ccc(O)cc2)cc1 [E-7010]	44.092	10.419	
CCOC(=O)C1=C(O)C(=O)N(Cc2ccccc2)C1 [EBPC]	122.465	100.134	Δ Maximal Response CD47KO-WT [1, 4]: 22.331
CN1CCC(COc2cnc(-c3cccc(Cn4nc(-c5cccc(C#N)c5)ccc4=O)c3)nc2)CC1 [EMD-1214063]	39.443	4.948	
CS[C@H]1SC[C@H]2C(=O)N(C)[C@@H](C(C)C)C(=O)OC[C@@H](NC(=O)c3cnc4ccccc4n3)C(=O)N[C@@H](C)C(=O)N(C)[C@@H]1C(=O)N(C)[C@@H](C(C)C)C(=O)OC[C@@H](NC(=O)c1cnc3ccccc3n1)C(=O)N[C@@H](C)C(=O)N2C [Echinomycin]			Maximal Response CD47 KO (RLU) [1]: 55.044 RLU; Maximal Response WT (RLU) [2]: 8.075 RLU
CC1=NN(c2ccc(C)c(C)c2)C(=O)/C1=N\Nc1cccc(-c2cccc(C(=O)O)c2)c1O [Eltrombopagolamine]	33.444	9.025	
COc1cc2c(cc1Cc1cccc(Cl)c1F)c(=O)c(C(=O)O)cn2[C@H](CO)C(C)C [Elvitegravir]	44.755	12.72	
CC[C@H]1CN2CCc3cc(OC)c(OC)cc3[C@@H]2C[C@@H]1C[C@H]1NCCc2cc(OC)c(OC)cc21 [Emetine]	33.945	5.168	
C[C@H](NC(=O)C(=O)Nc1ccccc1C(C)(C)C)C(=O)N[C@@H](CC(=O)O)C(=O)COc1c(F)c(F)cc(F)c1F [Emricasan]			Maximal Response CD47 KO (RLU) [1]: 69.759 RLU; Maximal Response WT (RLU) [2]: 26.974 RLU
Cn1cc(C2=C(c3cn(C4CCN(Cc5ccccn5)CC4)c4ccccc34)C(=O)NC2=O)c2ccccc21 [Enzastaurin]	40.303	13.534	
C/C(=C\c1csc(C)n1)[C@@H]1C[C@@H]2O[C@@H]2CCC[C@H](C)[C@H](O)[C@@H](C)C(=O)C(C)(C)[C@@H](O)CC(=O)O1 [Epothilone A]			Maximal Response CD47 KO (RLU) [1]: 52.727 RLU; Δ Maximal Response CD47KO-WT [1]: 26.334; Maximal Response WT (RLU) [2]: 26.393 RLU
C/C(=C\c1csc(C)n1)[C@@H]1C[C@@H]2O[C@]2(C)CCC[C@H](C)[C@H](O)[C@@H](C)C(=O)C(C)(C)[C@@H](O)CC(=O)O1 [Epothilone B]			Maximal Response CD47 KO (RLU) [1]: 49.832 RLU; Δ Maximal Response CD47KO-WT [1]: 22.724; Maximal Response WT (RLU) [2]: 27.108 RLU
CCCCc1ncc(/C=C(\Cc2cccs2)C(=O)O)n1Cc1ccc(C(=O)O)cc1 [Eprosartan mesylate]	90.261	63.38	
C[C@]12CC[C@@H]3c4ccc(OC(=O)N(CCCl)CCCl)cc4CC[C@H]3[C@@H]1CC[C@@H]2O [Estramustine]			Maximal Response CD47 KO (RLU) [1]: 135.618 RLU; Maximal Response WT (RLU) [2]: 105.466 RLU
C[C@]12CC[C@@H]3c4ccc(O)cc4CC[C@H]3[C@@H]1C[C@@H](O)[C@@H]2O [Estriol]	120.332	72.648	
COc1cc([C@@H]2c3cc4c(cc3[C@@H](O[C@@H]3O[C@@H]5CO[C@@H](C)O[C@H]5[C@H](O)[C@H]3O)[C@H]3COC(=O)[C@H]23)OCO4)cc(OC)c1O [Etoposide]	69.938	10.441	
C=C1C[C@@H]2[C@H](CC[C@]3(C)C(=O)CC[C@@H]23)[C@@]2(C)C=CC(=O)C=C12 [Exemestane]			Maximal Response CD47 KO (RLU) ([1]; 48 h): 77.388 RLU; Δ Maximal Response CD47KO-WT ([1]; 48 h): 28.566; Maximal Response WT (RLU) ([2]; 48 h): 48.822 RLU
